Data: PMC4336329 (PLoS ONE, 2015)
Hit rate of the full screen: of about 310,000 compounds, about 2,200 (0.71%) showed an effect of 50% or more. Effects have a minus sign here. This is one part of the list.

What follows are compounds tested against human ether-à-go-go-related gene (hERG) potassium channel (human, UniProt Q12809) (assay: primary screen, population patch clamp on CHO cells stably expressing hERG).
Sequence of human ether-à-go-go-related gene (hERG) potassium channel (Q12809 whole entry, looked up): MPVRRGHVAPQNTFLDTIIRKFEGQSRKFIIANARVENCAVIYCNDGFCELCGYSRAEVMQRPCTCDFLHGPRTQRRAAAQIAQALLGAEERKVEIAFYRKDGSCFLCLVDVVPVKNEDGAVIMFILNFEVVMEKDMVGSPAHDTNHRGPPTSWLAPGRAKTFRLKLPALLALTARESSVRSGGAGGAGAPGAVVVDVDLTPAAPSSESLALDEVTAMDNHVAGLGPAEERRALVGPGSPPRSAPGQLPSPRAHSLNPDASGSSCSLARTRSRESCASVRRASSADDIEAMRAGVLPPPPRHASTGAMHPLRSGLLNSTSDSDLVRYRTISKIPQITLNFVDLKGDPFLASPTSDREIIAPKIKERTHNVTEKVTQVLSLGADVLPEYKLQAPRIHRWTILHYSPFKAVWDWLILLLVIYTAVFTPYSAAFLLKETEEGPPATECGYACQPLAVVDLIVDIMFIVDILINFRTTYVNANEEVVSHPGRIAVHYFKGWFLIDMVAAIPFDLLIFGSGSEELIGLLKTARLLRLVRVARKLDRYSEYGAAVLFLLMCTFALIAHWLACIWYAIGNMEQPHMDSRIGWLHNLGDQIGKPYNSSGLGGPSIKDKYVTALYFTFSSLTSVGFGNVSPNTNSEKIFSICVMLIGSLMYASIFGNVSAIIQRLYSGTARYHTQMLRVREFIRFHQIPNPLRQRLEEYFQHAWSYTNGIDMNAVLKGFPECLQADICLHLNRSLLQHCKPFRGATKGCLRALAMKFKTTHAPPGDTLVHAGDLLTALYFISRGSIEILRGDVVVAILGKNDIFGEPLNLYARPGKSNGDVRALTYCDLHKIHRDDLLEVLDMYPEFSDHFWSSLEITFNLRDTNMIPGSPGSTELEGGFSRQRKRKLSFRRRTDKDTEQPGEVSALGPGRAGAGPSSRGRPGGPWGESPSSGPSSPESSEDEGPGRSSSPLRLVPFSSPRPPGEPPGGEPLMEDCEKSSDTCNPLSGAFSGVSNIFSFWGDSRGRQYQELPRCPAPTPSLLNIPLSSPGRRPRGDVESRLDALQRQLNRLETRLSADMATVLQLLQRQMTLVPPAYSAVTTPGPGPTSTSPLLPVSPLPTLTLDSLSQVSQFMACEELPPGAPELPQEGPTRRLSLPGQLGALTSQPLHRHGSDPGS

`O=C(CNC(=O)c1ccc(Cl)cc1)OCC(=O)N1CCCC1` was tested. Which “hERG current change (%, negative = inhibition) at 1uM” value did it give?
Its value is 16.1%.

Which “hERG current change (%, negative = inhibition) at 1uM” value does the source give for `CN(C(=O)Cc1ccccc1)n1cnnc1` here?
The value was 17.8%.

For `Cc1ccc(C)c(NC(=S)N2CCCCC2CO)c1` (centres unmarked), which “hERG current change (%, negative = inhibition) at 1uM” value is on record?
The value was 11%.

For `Cn1c(N)c(C(=O)c2ccc(F)cc2F)c(=O)n(C)c1=O`, which “hERG current change (%, negative = inhibition) at 1uM” value is on record?
Its value is 7.34%.

Which “hERG current change (%, negative = inhibition) at 1uM” value does the source give for `O=C(NCc1ccco1)C(c1ccco1)N(Cc1cccs1)C(=O)Cn1nnc2ccccc21` (centres unmarked) here?
Its value is 15.8%.

`COCCNC(=S)N(CCc1c(C)[nH]c2ccc(OC)cc12)Cc1cccnc1` was tested. Which “hERG current change (%, negative = inhibition) at 1uM” value did it give?
The value was 4.12%.

How did the “hERG current change (%, negative = inhibition) at 1uM” value turn out when `CCCC(CCC)c1nnc(NC(=O)c2ccco2)s1` was run?
The value was 15%.

Which “hERG current change (%, negative = inhibition) at 1uM” value does the source give for `CC1CC(C(F)(F)F)n2ncnc2N1` (centres unmarked) here?
The value was -4.81%.

`COc1ccc(N2C(=O)CC(N(CCc3ccccc3)C(=O)c3ccccc3)C2=O)cc1` (centres unmarked) was tested. Which “hERG current change (%, negative = inhibition) at 1uM” value did it give?
Its value is 12%.

For `COCCCN(C(=S)Nc1c(C)cc(C)cc1C)C(C)c1ccccn1` (centres unmarked), which “hERG current change (%, negative = inhibition) at 1uM” value is on record?
The value was 6.24%.

`CCOC(=O)c1nc2ccccc2s1` was tested. Which “hERG current change (%, negative = inhibition) at 1uM” value did it give?
Its value is 5.34%.

How did the “hERG current change (%, negative = inhibition) at 1uM” value turn out when `O=C(CSc1nc2cc(Cl)ccc2s1)c1cc2ccccc2o1` was run?
The value was 10.8%.

`CCOC(=O)C1=C(C)N=c2s/c(=C/c3ccc(OCC(=O)O)c(OC)c3)c(=O)n2C1c1ccc(Cl)cc1` (centres unmarked) was tested. Which “hERG current change (%, negative = inhibition) at 1uM” value did it give?
The value was 3.8%.

For `Cc1c(Cc2ccccc2)c(=O)oc2cc(O)cc(O)c12`, which “hERG current change (%, negative = inhibition) at 1uM” value is on record?
The value was 9.42%.

With `COc1ccc(C(C)(C)C)cc1NC(=O)CCCN1C(=O)NC(C)(C)C1=O` as the compound, how does the “hERG current change (%, negative = inhibition) at 1uM” value read?
Its value is 11.6%.

How did the “hERG current change (%, negative = inhibition) at 1uM” value turn out when `Cn1ccc(C(=O)OCC(=O)Nc2cccc3ccccc23)n1` was run?
Its value is 32.4%.

For `CCN(CC)CC(=O)NCC1(c2ccccc2)CCCC1`, which “hERG current change (%, negative = inhibition) at 1uM” value is on record?
The value was 8.45%.

Which “hERG current change (%, negative = inhibition) at 1uM” value does the source give for `CSCCC(NS(=O)(=O)c1ccc(Br)cc1)C(=O)OCC(=O)NC1CC1` (centres unmarked) here?
Its value is 11.9%.

With `CCCOC(=O)c1c(NC(=O)C2CCCO2)sc(C(=O)OC)c1C` (centres unmarked) as the compound, how does the “hERG current change (%, negative = inhibition) at 1uM” value read?
Its value is 2.45%.

For `CCOc1ccc(NC(=O)C(C)N2C(=O)c3ccccc3S2(=O)=O)cc1` (centres unmarked), which “hERG current change (%, negative = inhibition) at 1uM” value is on record?
Its value is 4.83%.

`COc1ccc(OC2CCN(C(=O)Nc3ccc(C)cc3)CC2)cc1` was tested. Which “hERG current change (%, negative = inhibition) at 1uM” value did it give?
Its value is 12.4%.

With `O=[N+]([O-])c1ccc(N=Cc2ccc(Br)c([N+](=O)[O-])c2)cc1` as the compound, how does the “hERG current change (%, negative = inhibition) at 1uM” value read?
The value was 8.66%.

Which “hERG current change (%, negative = inhibition) at 1uM” value does the source give for `Cc1ccc2nc(Nc3ccccc3)cc(C)c2c1` here?
The value was 6.39%.

`COc1ccccc1-c1nnc(NC(=O)C2=COCCO2)o1` was tested. Which “hERG current change (%, negative = inhibition) at 1uM” value did it give?
The value was 19.2%.

How did the “hERG current change (%, negative = inhibition) at 1uM” value turn out when `C=CCOC(=O)C(=O)/C=C/c1ccc2c(c1)Cc1ccccc1-2` was run?
The value was 3.71%.

For `O=C(CSc1ccc(Cl)cc1)c1ccco1`, which “hERG current change (%, negative = inhibition) at 1uM” value is on record?
The value was 11%.
